Experimental data reported in PMC10726135.
The other results are listed elsewhere or left out. At the low end of the ranking the order means little. Measured with an extract: partners may take part in the binding.

The sequences below were run against T1, HNF4alpha8 (COS-7 nuclear extract) (UniProt P41235-5) (assay: protein-binding microarray). Conditions: COS-7 nuclear extract on double-stranded Agilent 4x180k PBM; binding buffer, salt, pH and temperature not given; high values mean tight binding; double strand, one strand shown; sequences stand for … in …GCCTAGGGAGATTAGAGTATCGGTCGA.
T1 sequence: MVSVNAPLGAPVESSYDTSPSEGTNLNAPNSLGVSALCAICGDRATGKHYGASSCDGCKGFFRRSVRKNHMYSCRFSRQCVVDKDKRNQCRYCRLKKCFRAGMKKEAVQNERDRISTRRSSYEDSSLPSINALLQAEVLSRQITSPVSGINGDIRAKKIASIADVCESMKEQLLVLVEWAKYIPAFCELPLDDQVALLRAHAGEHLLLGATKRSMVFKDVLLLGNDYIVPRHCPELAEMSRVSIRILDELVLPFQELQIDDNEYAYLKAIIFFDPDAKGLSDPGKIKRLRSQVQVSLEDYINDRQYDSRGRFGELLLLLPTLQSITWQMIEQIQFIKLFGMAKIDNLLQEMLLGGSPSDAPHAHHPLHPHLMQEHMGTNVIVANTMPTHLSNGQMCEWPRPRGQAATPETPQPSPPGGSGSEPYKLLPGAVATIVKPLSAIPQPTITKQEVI
In the case of TAGCTGCTAGAGAAAAAGAAAAGCCTTGTG, the binding signal (log2 normalized intensity) is reported as -1.32. In the case of AAATGTACTGGATATAGCCAGATGTCCTTT, the binding signal (log2 normalized intensity) is reported as 2.37. CGCCGGAGAATTAAACTGCCGCGCCACTGC showed a binding signal (log2 normalized intensity) of -1.34. With TTTTGCTCTGATCCTAGTCTTTGCCCCACT the binding signal (log2 normalized intensity) was 3.94. Sequence ACAAGTTATTACCGTGATGTTCGTTTGGAT has a binding signal (log2 normalized intensity) of 1.36. CCCCTATTAACCAAAGCTACACAGATAAGC showed a binding signal (log2 normalized intensity) of -1.43. Sequence GTTCGGGGGACGGAGAGCAGGGCGTGGACT has a binding signal (log2 normalized intensity) of 1.78. For CTTATCACTTGGTGGACATGGTTCACTGAT, the binding signal (log2 normalized intensity) was 1.8. Sequence AAGGTCCCCACCACAAAGGCCAGAGAAAGA has a binding signal (log2 normalized intensity) of 2.07. In the case of GGGCAGCCCTGTTTAGGAGGAAATAGAGAG, the binding signal (log2 normalized intensity) is reported as -1.37. Work on CAGGAGGACTGGATCAATGGATCCACTCAG yielded a binding signal (log2 normalized intensity) of -1.32. Work on ACCCAAGATCAAAGAGAAAGTAAGTGCACA yielded a binding signal (log2 normalized intensity) of -0.546. Sequence CCTGGAAAAGTCTCAGGGGCCTTGCAATGA has a binding signal (log2 normalized intensity) of -1.22. For TCAAGAGAATTACAAACAGCCCTGACATTC, the binding signal (log2 normalized intensity) was -1.2. For CTCCCTGGGCAGTGCAGTATGCGCTCTGGG, the binding signal (log2 normalized intensity) was -1.34. AATTCCCAAGGGTATGTTTGTGATATTGTG was tested, and the binding signal (log2 normalized intensity) was 1.53. For TGTCAATGACCCTAATGGGGTACTTGAACC, the binding signal (log2 normalized intensity) was 3.26. For GTCCAGTCACAGCAAAAGTAGCCTGGTCAG, the binding signal (log2 normalized intensity) was -1.34. For AAGCAGCCCAACAGCATTAAGCTGAGGCAG, the binding signal (log2 normalized intensity) was -1.24. Work on GATGTTTATACAGCCTTGGAAGACACAGAT yielded a binding signal (log2 normalized intensity) of -1.35. CTGTGTCACGTACCGGCTAGACAAACAGCT was tested, and the binding signal (log2 normalized intensity) was -1.37. TCCCCCCTCCTCATTGAGAGTTTTAGGCTG showed a binding signal (log2 normalized intensity) of 2.42. Work on AGACAACATCGAAGACTTCATGATAACACT yielded a binding signal (log2 normalized intensity) of -1.33. Work on GCACCAGCCCATTAATCAAGGCTGCCTGGC yielded a binding signal (log2 normalized intensity) of -1.35. Work on CATGGCAGACAGCAGTCTGAGTAGGAAAGA yielded a binding signal (log2 normalized intensity) of -1.39. For TGTTCACAGTGACGTTCTGCCCCTTATCTT, the binding signal (log2 normalized intensity) was 3.68. Sequence AGCAAGATGACTTTGGTCTAGACACAGACT has a binding signal (log2 normalized intensity) of -0.78. For CAAATTGCTGACTTTCTGTGTCTTGGCAGT, the binding signal (log2 normalized intensity) was 1.24. Sequence CACAGAGGACGTCAGGCAGAGAGGGACTCT has a binding signal (log2 normalized intensity) of -1.2. CAGGGTAATGAGTGCTATCCCTGGAGCCTT gave a binding signal (log2 normalized intensity) of -1.27. ACCCCCGCCCCCATTATCTCCTTAGGTACT was tested, and the binding signal (log2 normalized intensity) was 3.33. Sequence AGCTTGTCCAGAGTAGGCTTGCAAGACTGC has a binding signal (log2 normalized intensity) of -1.34. For CGGGAGCATAGCAGCGAGGACAACCAGAGG, the binding signal (log2 normalized intensity) was -1.31. With ACCTTGTGCAGTATCCCAGGGACTTACTCA the binding signal (log2 normalized intensity) was -0.976. For ACCCAGGGGACGGAAGTTGCAGTGAGCTAA, the binding signal (log2 normalized intensity) was -1.23. AGAGGGTATACTATTTGCTAATGTCCTTTG was tested, and the binding signal (log2 normalized intensity) was 2.47. In the case of ATGCCTTTCATCTTTGAGAAAACTCCAAAG, the binding signal (log2 normalized intensity) is reported as -0.84. CCCAGCGGTTCCGGGCGGCAGCACAAGGCG was tested, and the binding signal (log2 normalized intensity) was -1.19. With AGGGAGATGGATATATGTACAGCTGTGTAT the binding signal (log2 normalized intensity) was 1.21. ATACTTTGACTGAGACTGCCTCAAACAGCT showed a binding signal (log2 normalized intensity) of -1.31. Sequence ACTATCATACACTATTTTCCTAAATATGTT has a binding signal (log2 normalized intensity) of 0.941. In the case of TCCAAAAGGGCAGCAGTAACCCCCCAGGAG, the binding signal (log2 normalized intensity) is reported as 3.77. In the case of GCGGGCTGGGGGCTGGGCGCGGGATCCTCT, the binding signal (log2 normalized intensity) is reported as -1.39. Work on CCAGCCCAGGTGGCTGCATCCTTCTCCTCC yielded a binding signal (log2 normalized intensity) of -1.34. In the case of GGTCAAAGAGCAATCATCAAGGTGGTTTCA, the binding signal (log2 normalized intensity) is reported as 2.27. With TGATGAAGCCTATAGTGCTCCCTCCTGTGG the binding signal (log2 normalized intensity) was -0.907. Sequence GCAGAGTGGAGGCCAGCGCCAGGCTGGGGG has a binding signal (log2 normalized intensity) of -1.35. In the case of AGGTCAATGCCAGGACCCTGTGGGACTGGT, the binding signal (log2 normalized intensity) is reported as -0.131. Work on ACTCAGTTATCAACCTTATCAGCAGGACAC yielded a binding signal (log2 normalized intensity) of -0.227. CCATTTCACCTTTGCCCTGTCAGTCTCTCA gave a binding signal (log2 normalized intensity) of 4.54. Sequence GTCAAATCACTGAAGCGACCCCTCGAGGCA has a binding signal (log2 normalized intensity) of 1.82. For AAAACAGGTGTTCTTTCCCTCCAGCCCACT, the binding signal (log2 normalized intensity) was 1.1. TTCCTGAAGATCGCAGACTTTGGACTCTGC gave a binding signal (log2 normalized intensity) of 8.57. TGGACCATGAGAAACATCCACATGTGGGTC was tested, and the binding signal (log2 normalized intensity) was 0.883. For GTGTTTATCTTGTGGTTGGAATGTTTCTGG, the binding signal (log2 normalized intensity) was 2.14. CTGATGAATAGAAAGAGGTCAATGTACTTA showed a binding signal (log2 normalized intensity) of 2.94. With TTGAGAACCTCCCATCAGCTGGGCTTGTTC the binding signal (log2 normalized intensity) was -0.188. ACTTGGGGTTCTTGGATCCTCAGGGTTCAT was tested, and the binding signal (log2 normalized intensity) was 3.08. For CCTTTTATTCAGGAAGTCGCTTGCCAGTAT, the binding signal (log2 normalized intensity) was -0.624. For TTTTTGACTTACCATTTGCTGATAAGTAGG, the binding signal (log2 normalized intensity) was 0.315. In the case of CAGCCAGGGTCAGGAGAAGCAGAACAGGTA, the binding signal (log2 normalized intensity) is reported as -1.41. In the case of CTGCTCATTTTTCCCCTGACAAGTATCTCG, the binding signal (log2 normalized intensity) is reported as 1.99. CACAGCAAGTAAATTCCGGGGCTGGAATTT showed a binding signal (log2 normalized intensity) of 1.42. TGGGCTCGGCGCTCCGCTTACTCGGCCTGG gave a binding signal (log2 normalized intensity) of -1.25. With ACATTCCAGGGAACAAGGGGTGGATCTCTG the binding signal (log2 normalized intensity) was -1.34. TTGGGGGCCATGTCTCAGCCCAAGATCAAA showed a binding signal (log2 normalized intensity) of -1.06. For TCCCAGGATGAGGCCGTTCTAGCCCTTTTT, the binding signal (log2 normalized intensity) was -0.0189. For CCAATTGACCCTATCCACATTCAGCCCACT, the binding signal (log2 normalized intensity) was 1.07. TCACAGGGAATTTCCAAAGAGCAGCTAGCT showed a binding signal (log2 normalized intensity) of -1.28. CACACACACAGCTTGGAGCTCCTTGTGAGC gave a binding signal (log2 normalized intensity) of -1.35. GACCTTTGCCCTCTGGCCCTTAAAGGCTTT was tested, and the binding signal (log2 normalized intensity) was 7.8. Work on CCTGGTGACCTTTGTTTGGTCAAATACCTA yielded a binding signal (log2 normalized intensity) of 3.66. GCACAAGAGGGTGGGAGTTCAGGGGGTTGG showed a binding signal (log2 normalized intensity) of -1.09.
